# Some of the results follow.
# Columns and labels:
# Assay in all cases: glycan array binding signal (z-score within array); higher = stronger binding
# Conditions in all cases: glycan notation: IUPAC condensed, linker removed
# [1] = target: Man(a1-2)Man(a1-2)Man(a1-3)Man
# Procedure, shortened: (§1)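 The binding signal is a Z-score computed within each array. Data were drawn from 3228 arrays in the Consortium for Functional Glycomics database, restricted to those with a known protein sequence. Scores were averaged over arrays of the same protein sequence at different concentrations or buffers, and over linkers, and negative values can be taken as non-binding.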
# [2] = target: Man(a1-2)Man(a1-2)Man(a1-6)[Man(a1-3)]Man
# Procedure, shortened: as §1
# Man(a1-2)Man(a1-3)Man = target: Man(a1-2)Man(a1-3)Man
# Procedure, shortened: as §1
# [3] = target: Man(a1-2)Man(a1-3)[Man(a1-2)Man(a1-6)]Man
# Procedure, shortened: as §1
# [4] = target: Man(a1-2)Man(a1-3)[Man(a1-2)Man(a1-6)]Man(a1-6)[Man(a1-2)Man(a1-2)Man(a1-3)]Man
# Procedure, shortened: as §1
# [5] = target: Man(a1-2)Man(a1-3)[Man(a1-2)Man(a1-6)]Man(a1-6)[Man(a1-2)Man(a1-2)Man(a1-3)]Man(b1-4)GlcNAc(b1-4)GlcNAc
# Procedure, shortened: as §1
# [6] = target: Man(a1-2)Man(a1-3)[Man(a1-6)]Man(a1-6)[Man(a1-2)Man(a1-3)]Man(b1-4)GlcNAc(b1-4)GlcNAc
# Procedure, shortened: as §1
# [7] = target: Man(a1-2)Man(a1-6)[Man(a1-3)]Man(a1-6)[Man(a1-2)Man(a1-2)Man(a1-3)]Man
# Procedure, shortened: as §1
# [8] = target: Man(a1-2)Man(a1-6)[Man(a1-3)]Man(a1-6)[Man(a1-2)Man(a1-2)Man(a1-3)]Man(b1-4)GlcNAc(b1-4)GlcNAc
# Procedure, shortened: as §1
# Man(a1-3)[Man(a1-6)]Man = target: Man(a1-3)[Man(a1-6)]Man
# Procedure, shortened: as §1
# [9] = target: Man(a1-3)[Man(a1-6)]Man(a1-6)[Man(a1-2)Man(a1-3)]Man(b1-4)GlcNAc(b1-4)GlcNAc
# Procedure, shortened: as §1
# [10] = target: Man(a1-3)[Man(a1-6)]Man(a1-6)[Man(a1-3)]Man
# Procedure, shortened: as §1
# [11] = target: Man(a1-3)[Man(a1-6)]Man(a1-6)[Man(a1-3)]Man(b1-4)GlcNAc(b1-4)GlcNAc
# Procedure, shortened: as §1
# [12] = target: Man(a1-3)[Man(a1-6)]Man(b1-4)GlcNAc(b1-4)GlcNAc
# Procedure, shortened: as §1
# Man(a1-6)Man = target: Man(a1-6)Man
# Procedure, shortened: as §1
# Man(b1-4)GlcNAc = target: Man(b1-4)GlcNAc
# Procedure, shortened: as §1
# Neu5Ac(a2-3)Gal = target: Neu5Ac(a2-3)Gal
# Procedure, shortened: as §1
# [13] = target: Neu5Ac(a2-3)Gal(b1-3)GalNAc
# Procedure, shortened: as §1
# [14] = target: Neu5Ac(a2-3)Gal(b1-3)GalNAc(b1-3)Gal(a1-4)Gal(b1-4)Glc
# Procedure, shortened: as §1
# [15] = target: Neu5Ac(a2-3)Gal(b1-3)GalNAc(b1-3)Gal(b1-4)GlcNAc
# Procedure, shortened: as §1
# [16] = target: Neu5Ac(a2-3)Gal(b1-3)GalNAc(b1-4)[Neu5Ac(a2-3)]Gal(b1-4)Glc
# Procedure, shortened: as §1
# [17] = target: Neu5Ac(a2-3)Gal(b1-3)GalNAc6S
# Procedure, shortened: as §1
# [18] = target: Neu5Ac(a2-3)Gal(b1-3)GlcNAc
# Procedure, shortened: as §1
# [19] = target: Neu5Ac(a2-3)Gal(b1-3)GlcNAc(b1-3)Gal(b1-3)GlcNAc
# Procedure, shortened: as §1
# [20] = target: Neu5Ac(a2-3)Gal(b1-3)GlcNAc6S
# Procedure, shortened: as §1
# [21] = target: Neu5Ac(a2-3)Gal(b1-3)[Fuc(a1-4)]GlcNAc
# Procedure, shortened: as §1
# [22] = target: Neu5Ac(a2-3)Gal(b1-3)[Fuc(a1-4)]GlcNAc(b1-3)Gal(b1-3)[Fuc(a1-4)]GlcNAc
# Procedure, shortened: as §1
# [23] = target: Neu5Ac(a2-3)Gal(b1-3)[Fuc(a1-4)]GlcNAc(b1-3)Gal(b1-4)[Fuc(a1-3)]GlcNAc
# Procedure, shortened: as §1
# [24] = target: Neu5Ac(a2-3)Gal(b1-3)[Neu5Ac(a2-3)Gal(b1-4)]GlcNAc
# Procedure, shortened: as §1
# [25] = target: Neu5Ac(a2-3)Gal(b1-3)[Neu5Ac(a2-6)]GalNAc
# Procedure, shortened: as §1
# Neu5Ac(a2-3)Gal(b1-4)Glc = target: Neu5Ac(a2-3)Gal(b1-4)Glc
# Procedure, shortened: as §1
# [26] = target: Neu5Ac(a2-3)Gal(b1-4)GlcNAc
# Procedure, shortened: as §1
# [27] = target: Neu5Ac(a2-3)Gal(b1-4)GlcNAc(b1-2)Man(a1-3)[GlcNAc(b1-2)Man(b1-4)GlcNAc(b1-2)Man(a1-6)]Man(b1-4)GlcNAc(b1-4)GlcNAc
# Procedure, shortened: as §1
# [28] = target: Neu5Ac(a2-3)Gal(b1-4)GlcNAc(b1-2)Man(a1-3)[Neu5Ac(a2-6)Gal(b1-4)GlcNAc(b1-2)Man(a1-6)]Man(b1-4)GlcNAc(b1-4)GlcNAc
# Procedure, shortened: as §1
# [29] = target: Neu5Ac(a2-3)Gal(b1-4)GlcNAc(b1-3)Gal(b1-3)GlcNAc
# Procedure, shortened: as §1
# [30] = target: Neu5Ac(a2-3)Gal(b1-4)GlcNAc(b1-3)Gal(b1-4)GlcNAc
# Procedure, shortened: as §1
# [31] = target: Neu5Ac(a2-3)Gal(b1-4)GlcNAc(b1-3)Gal(b1-4)GlcNAc(b1-3)Gal(b1-4)GlcNAc
# Procedure, shortened: as §1
binder,measurement,setting,value
"Spy0252 (Streptococcus pyogenes), Q9A1I9_STRP1 (protein) MNMKKLASLAMLGASVLGLAACGGKSQKEAGASKSDTAKTEITWWAFPVFTQEKAEDGVGTYEKKLIAAFEKANPEIKVKLETIDFTSGPEKITTAIEAGTAPDVLFDAPGRIIQYGKNGKLADLNDLFTEEFTKDVNNDKLIQASKAGDTAYMYPISSAPFYMALNKKMLKDAGVLDLVKEGWTTDDFEKVLKALKDKGYNPGSFFANGQGGDQGPRAFFANLYSSHITDDKVTKYTTDDANSIKAMTKISNWIKDGLMMNGSQYDGSADIQNFANGQTSFTILWAPAQPGIQAKLLEASKVDYLEIPFPSDDGKPELEYLVNGFAVFNNKDEQKVAASKTFIQFIADDKEWGPKNVVRTGAFPVRTSYGDLYKDKRMEKIAEWTKFYSPYYNTIDGFAEMRTLWFPMVQAVSNGDEKPEDALKAFTEKANKTIKKTQ",glycan array binding signal (z-score),[1],-0.235
same,glycan array binding signal (z-score),[2],-0.258
same,glycan array binding signal (z-score),Man(a1-2)Man(a1-3)Man,-0.211
same,glycan array binding signal (z-score),[3],-0.267
same,glycan array binding signal (z-score),[4],-0.264
same,glycan array binding signal (z-score),[5],-0.273
same,glycan array binding signal (z-score),[6],-0.253
same,glycan array binding signal (z-score),[7],-0.265
same,glycan array binding signal (z-score),[8],-0.236
same,glycan array binding signal (z-score),Man(a1-3)[Man(a1-6)]Man,-0.267
same,glycan array binding signal (z-score),[9],-0.273
same,glycan array binding signal (z-score),[10],-0.272
same,glycan array binding signal (z-score),[11],-0.271
same,glycan array binding signal (z-score),[12],-0.269
same,glycan array binding signal (z-score),Man(a1-6)Man,-0.283
same,glycan array binding signal (z-score),Man(b1-4)GlcNAc,-0.263
same,glycan array binding signal (z-score),Neu5Ac(a2-3)Gal,-0.256
same,glycan array binding signal (z-score),[13],-0.243
same,glycan array binding signal (z-score),[14],0.826
same,glycan array binding signal (z-score),[15],-0.267
same,glycan array binding signal (z-score),[16],-0.256
same,glycan array binding signal (z-score),[17],-0.268
same,glycan array binding signal (z-score),[18],-0.26
same,glycan array binding signal (z-score),[19],-0.195
same,glycan array binding signal (z-score),[20],-0.246
same,glycan array binding signal (z-score),[21],-0.279
same,glycan array binding signal (z-score),[22],0.235
same,glycan array binding signal (z-score),[23],0.363
same,glycan array binding signal (z-score),[24],-0.223
same,glycan array binding signal (z-score),[25],-0.085
same,glycan array binding signal (z-score),Neu5Ac(a2-3)Gal(b1-4)Glc,5.54
same,glycan array binding signal (z-score),[26],-0.276
same,glycan array binding signal (z-score),[27],-0.262
same,glycan array binding signal (z-score),[28],-0.259
same,glycan array binding signal (z-score),[29],-0.263
same,glycan array binding signal (z-score),[30],-0.274
same,glycan array binding signal (z-score),[31],-0.26

# Source: the supplement of paper PMC8728848
